These are yes or no findings as the source states them, for the method shown. In cells and extracts the contact can be indirect. Some entries that bind do so weakly or less than the wild type. Sequences can lack the tags named with a protein.

Test [1] concerns the target T1, dephosphorylated MBP-Plk4-TE (Drosophila melanogaster) (UniProt O97143).
T1 sequence: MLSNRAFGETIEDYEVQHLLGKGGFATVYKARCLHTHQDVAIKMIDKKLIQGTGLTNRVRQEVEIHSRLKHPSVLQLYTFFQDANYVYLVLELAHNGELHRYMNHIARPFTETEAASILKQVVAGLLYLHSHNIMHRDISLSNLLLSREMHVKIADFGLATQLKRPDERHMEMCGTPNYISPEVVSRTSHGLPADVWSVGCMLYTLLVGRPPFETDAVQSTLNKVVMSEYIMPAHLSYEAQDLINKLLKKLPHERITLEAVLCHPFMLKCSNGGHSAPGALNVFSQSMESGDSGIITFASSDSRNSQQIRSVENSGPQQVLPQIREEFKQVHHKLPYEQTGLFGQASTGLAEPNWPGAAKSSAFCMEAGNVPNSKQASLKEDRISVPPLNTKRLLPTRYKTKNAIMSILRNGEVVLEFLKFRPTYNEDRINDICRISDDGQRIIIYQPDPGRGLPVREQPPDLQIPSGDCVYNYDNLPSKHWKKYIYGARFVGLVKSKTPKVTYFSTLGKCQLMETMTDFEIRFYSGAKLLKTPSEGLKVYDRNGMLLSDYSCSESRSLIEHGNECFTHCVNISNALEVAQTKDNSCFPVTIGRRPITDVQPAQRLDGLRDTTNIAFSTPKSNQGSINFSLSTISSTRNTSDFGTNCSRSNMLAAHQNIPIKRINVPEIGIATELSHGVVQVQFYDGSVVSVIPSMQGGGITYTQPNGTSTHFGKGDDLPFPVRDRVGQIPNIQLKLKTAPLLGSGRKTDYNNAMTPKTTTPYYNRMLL
In words: pull-down; MBP-Plk4-TE, phosphorylated or dephosphorylated, immobilized on amylose resin and incubated with 35S-labelled IVTT products; SDS-PAGE and autoradiography; only the target purified.

The target of test [2] is T2, p-MBP-Plk4-TE (self-phosphorylated, constitutively active Drosophila Plk4) (Drosophila melanogaster) (UniProt O97143).
T2 sequence (chain, self-phosphorylated (auto-phosphorylation in bacteria; sites not named)): T1 sequence
The test is described as above.

In test [3] the target is T3, GFP-HsPP5 (human PP5) (human) (UniProt P53041).
T3 sequence: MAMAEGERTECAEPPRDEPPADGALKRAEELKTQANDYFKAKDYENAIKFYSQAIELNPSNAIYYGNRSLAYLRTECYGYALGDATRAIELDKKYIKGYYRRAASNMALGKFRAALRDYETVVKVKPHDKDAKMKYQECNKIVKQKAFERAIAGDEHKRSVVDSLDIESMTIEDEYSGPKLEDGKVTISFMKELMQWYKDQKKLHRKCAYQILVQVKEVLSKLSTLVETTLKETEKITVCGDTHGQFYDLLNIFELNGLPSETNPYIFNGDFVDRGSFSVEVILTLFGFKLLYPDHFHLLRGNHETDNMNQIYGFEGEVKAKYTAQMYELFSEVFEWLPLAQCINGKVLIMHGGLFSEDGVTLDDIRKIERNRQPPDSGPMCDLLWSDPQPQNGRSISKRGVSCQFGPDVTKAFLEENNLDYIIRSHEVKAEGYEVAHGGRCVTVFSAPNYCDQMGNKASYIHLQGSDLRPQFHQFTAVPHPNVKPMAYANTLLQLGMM
In words: co-IP; GFP-Trap magnetic agarose beads on lysates of transiently co-transfected HEK293 cells in EB buffer, 4 °C, 90 min; blots with anti-FlagM2 and anti-GFP.

B1: ^35S-Sas4 (protein, UniProt Q9VI72 1-901)
chain: MQEAGESPVGMPLSQEAIAQRLAALSRWQDEQKRLLQERQSNHRVLLGLEQRNMYKMLGLLHQETESHENSVLEEWDEEHSIQMPRLAADPDEHEPEISMADPQPAKPKRPFLRRGEGLKQRFKINPDQLRLENLPRYKFANAHPQFRTPQMKKGILKKQVKSPPNPAPPPAPKPSAQLDDLNEQRFQQMLIGKNACSSTPDLKSSYASSTTASSTSPRVRFVEQKSRAGQTTHADDEASSEASPMTGVCWAKVLDTQSIKPAQIQRRSAQIRVEDDSNVSIFELLEQKATEGNIDMNSSCIRTFMARKDQRRRVADDSDHIVVTQQVRQMRLQPQVDQMLVQELQEGDEEDTEPSSDQTLTMTPIQVGNTKVRVRFSDSNDTHEYSDATSLNDGSNIQLFEQFKSALFQALEQKKKSSPSKESDEPITKDLQEKANLVRTRLEELETEIATFKEQNAQLLRLRQQHELEKAKCTQDHMEAMERVHDEKIQAEIYLHDERMKIEEERRKFEQQMRLQKSNANSKEKKEIAALKQEVEGLQLQLKQKEQAHVSAQARLRAQLRASEKEQRNYRDEIELLRKENKRLEQELVKIGRENNSKMLQEINRNIARLAPKVLPSATMSDILDENGRRTQSLDGTAGKPAKQREAQNRRQSSGSAQVRSRSRSLSRNKKTPYALDESYASSSSVESEEVQPPVTAPKAATPPPAANSSSDFKREITNADGSKDIWYPNGNLKKISADGMNLRMLYFNKDIKETNIREGTVKYYYAETNTWHTSYLDGLEILEFPNGQTEHRRKDGTVEIHFPNNSIKIVDPSDTEKLEEWRYADGTHLVQLRNGDKILNLPNGQKEIHTKLNKRREYPDGTVKLVYPDGSQETRYSNGRVRLKDKDGKLIMDTDYAKY
modifications: 35S-methionine-labelled
As for B1, in test [1], the binding entry was “binds”.

B2: ^35S-Sas6 (protein, UniProt Q9VAC8 1-472)
chain: MWPPGSEDSYSAKMDYGKSVVNILPSVEMLVNFNGEMTRSSKRSCLLYAERVDFKELLQLRLTEKSDQRRMYITTVDSASFQDLKQDQSLNVSFSGFIDNVVRMLKDCQSGKLELHLTTRDQNLSSGREVHDYYLQFVEIRSFKNLVHLSLPCRSAPLNTVLFYINSMLEASHKKQYILEQSMQQMQAEINAQRAHAERLTTENTNIREALAENTRILEEKHAAEVHQYQEKLSKINEQRSNELERNRRAISGFQAQLDKASLEKAELKSAQEQAEKRCQTLSEELSCCKARVCTLKEQNDKLHGDVANIRKHERKLEYKIEDLKQHTVELQEHIQKGNKEKANIAAELEAEKKILHTKRQALEMASEEISKANQIIVKQSQELLNLKKTIAWRTEVALQQEKAVQAKESLLSLRENELREARITIEKLREEIPQQLQSMRNFAQGLEQKYSKQILILKERLAIPTGKENRR
modifications: 35S-methionine-labelled
Regarding B2, the binding result in test [2] and in test [1] was “no binding” in each case.

B3: Flag-HsPlk4-ND (non-degradable human Plk4) (enzyme, UniProt O00444 1-970)
chain: MATCIGEKIEDFKVGNLLGKGSFAGVYRAESIHTGLEVAIKMIDKKAMYKAGMVQRVQNEVKIHCQLKHPSILELYNYFEDSNYVYLVLEMCHNGEMNRYLKNRVKPFSENEARHFMHQIITGMLYLHSHGILHRDLTLSNLLLTRNMNIKIADFGLATQLKMPHEKHYTLCGTPNYISPEIATRSAHGLESDVWSLGCMFYTLLIGRPPFDTDTVKNTLNKVVLADYEMPSFLSIEAKDLIHQLLRRNPADRLSLSSVLDHPFMSRNSSTKSKDLGTVEDSIDAGHAAISTAITASSSTSISGSLFDKRRLLIGQPLPNKMTVFPKNKSSTDFSSSGDGNSFYTQWGNQETSNSGRGRVIQDAEERPHSRYLRRAYSSDRSGTSNSQSQAKTYTMERCHSAEMLSVSKRSGGGENEERYSPTDNNANIFNFFKEKTSSSSGSFERPDNNQALSNHLCPGKTPFPFADPTPQTETVQQWFGNLQINAHLRKTTEYDSISPNRDFQGHPDLQKDTSKNAWTDTKVKKNSDASDNAHSVKQQNTMKYMTALHSKPEIIQQECVFGSDPLSEQSKTRGMEPPWGYQNRTLRSITSPLVAHRLKPIRQKTKKAVVSILDSEEVCVELVKEYASQEYVKEVLQISSDGNTITIYYPNGGRGFPLADRPPSPTDNISRYSFDNLPEKYWRKYQYASRFVQLVRSKSPKITYFTRYAKCILMENSPGADFEVWFYDGVKIHKTEDFIQVIEKTGKSYTLKSESEVNSLKEEIKMYMDHANEGHRICLALESIISEEERKTRSAPFFPIIIGRKPGSTSSPKALSPPPSVDSNYPTRERASFNRMVMHSAASPTQAPILNPSMVTNEGLGLTTTASGTDISSNSLKDCLPKSAQLLKSVFVKNVGWATQLTSGAVWVQFNDGSQLVVQAGVSSISYTSPNGQTTRYGENEKLPDYIKQKLQCLSSILLMFSNPTPNFH
On to B3, for which the binding entry in test [3] is reported as “binds”.

B4: ^35S-Ana2 (protein, UniProt Q9XZ31 1-420)
chain: MFVPETEDMLPRLAPRPSAAVPMGHTNEIIGPTVPEVSILFGQPPQDPQMQPQQPNHAHQESSPRAAPTFASWKKQMLPRVNFSPILATELGPRTAPSSNSPCSSKEYQVMPRDRNYASDAQQTTNHMNCNAGGYNAEPKQQAYQSRRLSSSSNADVLTICAGTQTDPFNPSPPRKSLPQVVYSDIDVSNLANKSDLAALVSLVESVRHEQQQLRNLCEMILEQQQRAKPEAISKASSTTGTQCDILTTNQAGRRLSPIMQDYIAEEEEPLPPPQARVIPQFPSPRPHPPIAQSTGYRANTPQAKRIPQLAKPNTEKSMVMNELALKYLRQPVDELMKDMRLGASPKSPNPEPLRPIDNIGHAQSPNDISNASYKYLKKYRLLPEEQLEPVCPQSPMAATAPSPHIQLDLENIRNQPKLL
modifications: 35S-methionine-labelled
With B4, the binding entry in test [2] and in test [1] was “no binding” each time.
